Experimental data: the supplement of paper PMC8728848
This is one part of the list.

What was measured:
Assay in all cases: glycan array binding signal (z-score within array); higher = stronger binding
Conditions in all cases: glycan notation: IUPAC condensed, linker removed; mutation: Y228A
[1] = molecular target: GlcNAc(b1-3)Gal(b1-4)GlcNAc(b1-3)Gal(b1-4)GlcNAc(b1-3)Gal(b1-4)GlcNAc(b1-3)Gal(b1-4)GlcNAc(b1-2)[GlcNAc(b1-3)Gal(b1-4)GlcNAc(b1-3)Gal(b1-4)GlcNAc(b1-3)Gal(b1-4)GlcNAc(b1-3)Gal(b1-4)GlcNAc(b1-6)]Man(a1-6)[GlcNAc(b1-3)Gal(b1-4)GlcNAc(b1-3)Gal(b1-4)GlcNAc(b1-3)Gal(b1-4)GlcNAc(b1-3)Gal(b1-4)GlcNAc(b1-2)Man(a1-3)]Man(b1-4)GlcNAc(b1-4)[Fuc(a1-6)]GlcNAc
How it was run: (§1)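 The binding signal is a Z-score computed within each array. Data were drawn from 3228 arrays in the Consortium for Functional Glycomics database, restricted to those with a known protein sequence. Scores were averaged over arrays of the same protein sequence at different concentrations or buffers, and over linkers, and negative values can be taken as non-binding.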

[2] = molecular target: GlcNAc(b1-3)Gal(b1-4)GlcNAc(b1-3)Gal(b1-4)GlcNAc(b1-3)GalNAc
How it was run: as §1

[3] = molecular target: GlcNAc(b1-3)Gal(b1-4)GlcNAc(b1-3)GalNAc
How it was run: as §1

[4] = molecular target: GlcNAc(b1-3)Gal(b1-4)GlcNAc(b1-3)[GlcNAc(b1-3)Gal(b1-4)GlcNAc(b1-3)]GalNAc
How it was run: as §1

[5] = molecular target: GlcNAc(b1-3)Gal(b1-4)GlcNAc(b1-6)[Gal(b1-3)]GalNAc
How it was run: as §1

[6] = molecular target: GlcNAc(b1-3)Gal(b1-4)GlcNAc(b1-6)[GlcNAc(b1-3)Gal(b1-3)]GalNAc
How it was run: as §1

[7] = molecular target: GlcNAc(b1-3)Gal(b1-4)GlcNAc(b1-6)[GlcNAc(b1-3)]Gal(b1-4)GlcNAc
How it was run: as §1

GlcNAc(b1-3)GalNAc = molecular target: GlcNAc(b1-3)GalNAc
How it was run: as §1

GlcNAc(b1-3)Man = molecular target: GlcNAc(b1-3)Man
How it was run: as §1

[8] = molecular target: GlcNAc(b1-3)[GlcNAc(b1-4)][GlcNAc(b1-6)]GlcNAc
How it was run: as §1

[9] = molecular target: GlcNAc(b1-3)[GlcNAc(b1-6)]Gal(b1-4)GlcNAc
How it was run: as §1

[10] = molecular target: GlcNAc(b1-3)[GlcNAc(b1-6)]GalNAc
How it was run: as §1

[11] = molecular target: GlcNAc(b1-4)Gal(b1-4)GlcNAc
How it was run: as §1

GlcNAc(b1-4)GlcNAc = molecular target: GlcNAc(b1-4)GlcNAc
How it was run: as §1

[12] = molecular target: GlcNAc(b1-4)GlcNAc(b1-4)GlcNAc
How it was run: as §1

[13] = molecular target: GlcNAc(b1-4)GlcNAc(b1-4)GlcNAc(b1-4)GlcNAc(b1-4)GlcNAc
How it was run: as §1

[14] = molecular target: GlcNAc(b1-4)GlcNAc(b1-4)GlcNAc(b1-4)GlcNAc(b1-4)GlcNAc(b1-4)GlcNAc
How it was run: as §1

[15] = molecular target: GlcNAc(b1-4)[GlcNAc(b1-6)]GalNAc
How it was run: as §1

[16] = molecular target: GlcNAc(b1-6)Gal(b1-4)GlcNAc
How it was run: as §1

GlcNAc(b1-6)GalNAc = molecular target: GlcNAc(b1-6)GalNAc
How it was run: as §1

[17] = molecular target: GlcNAc6S(b1-3)Gal(b1-4)GlcNAc
How it was run: as §1

Kdn(a2-3)Gal(b1-3)GalNAc = molecular target: Kdn(a2-3)Gal(b1-3)GalNAc
How it was run: as §1

Kdn(a2-3)Gal(b1-3)GlcNAc = molecular target: Kdn(a2-3)Gal(b1-3)GlcNAc
How it was run: as §1

Kdn(a2-3)Gal(b1-4)Glc = molecular target: Kdn(a2-3)Gal(b1-4)Glc
How it was run: as §1

Kdn(a2-3)Gal(b1-4)GlcNAc = molecular target: Kdn(a2-3)Gal(b1-4)GlcNAc
How it was run: as §1

[18] = molecular target: Kdn(a2-3)Gal(b1-4)[Fuc(a1-3)]GlcNAc
How it was run: as §1

Kdn(a2-6)Gal(b1-4)GlcNAc = molecular target: Kdn(a2-6)Gal(b1-4)GlcNAc
How it was run: as §1

[19] = molecular target: Man(a1-2)Man(a1-2)Man(a1-3)Man
How it was run: as §1

[20] = molecular target: Man(a1-2)Man(a1-2)Man(a1-6)[Man(a1-3)]Man
How it was run: as §1

Man(a1-2)Man(a1-3)Man = molecular target: Man(a1-2)Man(a1-3)Man
How it was run: as §1

B1: Epa1-NP-mutant-Y228A (Candida glabrata), Q6VBJ0 (protein)
chain: MILNPALFLNKCVCIYTTLILLLLTNGGYATSSNDISLASKDPTTFPLGCSPDITTPKKGLSMELYSYDFRKKGSYPCWDAAYLDPNYPRTGYKSHRLLAKVDGVTGNINFYYHATKGCTPQLGHLPASYNYPKPLTMTNFTMLLYGYFRPKVTGFHTFTISADDLLFVNFGAGNAFDCCRRDSSADHFGNYQAYAIWGSKTAKDELTVHLDAGVYYPIRLFYNNREADGALSFTFKTESNENTVSDFSEYFFSLDDTEEGCPGLISYDSSCASVKTSKIIGIDYHTETPNENLVPITKTIYHLGIPCTGTTTTPLCGSGFYDPLANKCVTINTSSTSSVTKTTSHTTSKEVSFHSSISSQKTLIPKSIPSPYGPIKSQSIPTEMETSSEISSSEYAFSDVISTPSHSPYTKKHSSLNSSSYTSTVIHSLTSYSISQGIFSTSLSEQNITSKSSTDKFSTATSMSNNITQSSIIISQFSTNNENYTTTSMHTSSDKISTETLNNSISTTTSILFSNSSTILKNNTTIISSDKDTHYHPVNPTIVCSTNKTEIICASITQPSISNSNNHWSSSVLKFNSTTVRSTLPSSAGSNETSINVPFSSSTESNTSTSSTSTSNSKMVRSTLPSSAGSNETSISVPFSSSTESNTSTSSTSTSNSKMVRSTLPSSAGSNETSINVPFSSSTESNTSTSSTSTSNSKTVRSTPFSSAGIIMTSLSQRNNKSASSYASSNSKCYNTADSCRKVHSTPSYLLTSSYTSEGVDYDCSLVSTKLKINDTNCVNNKHTTKSCLKTSVTTTIPTLEIKTARKSSSNTIGLHSYPTSSPNKSISSAPIIGYISSFKTIKTASPSYQTSDLTTITTITSLNNPGSTAVENTHESNDKSRKTSSNDISSKHSVIKETKDAVESSNKSHQTNTLKCSSIIIASSSHNSYESLGGTTLTLTLSKVYSPQNNDTLPFLEISEVNPSRTVLPESSKMMQYLTSTEERNKTARNTIATNIVSISTFHFEGEGNAIRMGYTQLLLMLIGIIVMNIGT
glycan array binding signal (z-score) [1]: 0.081
glycan array binding signal (z-score) [2]: -0.188
glycan array binding signal (z-score) [3]: -0.244
glycan array binding signal (z-score) [4]: -0.203
glycan array binding signal (z-score) [5]: -0.012
glycan array binding signal (z-score) [6]: -0.089
glycan array binding signal (z-score) [7]: -0.315
glycan array binding signal (z-score) (GlcNAc(b1-3)GalNAc): -0.218
glycan array binding signal (z-score) (GlcNAc(b1-3)Man): -0.295
glycan array binding signal (z-score) [8]: -0.146
glycan array binding signal (z-score) [9]: -0.235
glycan array binding signal (z-score) [10]: -0.277
glycan array binding signal (z-score) [11]: -0.064
glycan array binding signal (z-score) (GlcNAc(b1-4)GlcNAc): -0.279
glycan array binding signal (z-score) [12]: -0.167
glycan array binding signal (z-score) [13]: -0.213
glycan array binding signal (z-score) [14]: -0.261
glycan array binding signal (z-score) [15]: -0.288
glycan array binding signal (z-score) [16]: 0.495
glycan array binding signal (z-score) (GlcNAc(b1-6)GalNAc): -0.255
glycan array binding signal (z-score) [17]: 1
glycan array binding signal (z-score) (Kdn(a2-3)Gal(b1-3)GalNAc): -0.251
glycan array binding signal (z-score) (Kdn(a2-3)Gal(b1-3)GlcNAc): -0.162
glycan array binding signal (z-score) (Kdn(a2-3)Gal(b1-4)Glc): -0.129
glycan array binding signal (z-score) (Kdn(a2-3)Gal(b1-4)GlcNAc): -0.29
glycan array binding signal (z-score) [18]: -0.122
glycan array binding signal (z-score) (Kdn(a2-6)Gal(b1-4)GlcNAc): -0.22
glycan array binding signal (z-score) [19]: -0.277
glycan array binding signal (z-score) [20]: -0.127
glycan array binding signal (z-score) (Man(a1-2)Man(a1-3)Man): -0.176
